In the supplement of paper PMC11417369:
This is one part of the list.

tested on: PfSIP2 AP2 domain 1 (GST-tagged); test: gcPBM binding intensity (ln(normalized median fluorescence intensity)); higher = stronger DNA binding
Method in brief: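 Binding intensity is the highest Masliner-normalised natural-log median intensity over replicate spots in either probe orientation. To obtain it, GST-tagged P. falciparum DNA-binding domains made in E. coli were incubated for 1 h on an Agilent 4 × 180k array of primer-extended double-stranded 36-bp intergenic genomic probes plus negative controls. Detection used Alexa488 anti-GST antibody with scanning at 488 nm.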

Sequence	gcPBM binding intensity (ln)
TAAACATTTGGCTGATGTACTTGCTACCTTAAATCA [XGTACX_site5514]	6.63
ATTTTTGTGTATTAATGTACTTTATGCATATTTGAC [XGTACX_site3353]	7.52
TATTTTTATAAGTAAAAGGAGCACAGTTAAAGGATC [XGTACX_negctrl_site362]	8
CATTTAACATAAATTAAACACACAATATAATACATT [CACACA_site8333]	7
AAAGATAAAATATTATGTACATATATATATATATAT [XGTACX_site5079]	9.34
TGTATAAAAGTTTATACACACATTTGATATATTTCA [CACACA_site6606]	6.93
TTTTTTTGTTGTTGTTGTACGATATTTTCCTTATCA [XGTACX_site2375]	7
TATAAAAAAAACAAAAAAAAAAAAAAACAAAAAAAA [TGCATGCA_negctrl_site514]	6.81
GGGAATATAAGTACACGATAATATGTGATAAGGTCT [CACACA_negctrl_site1502]	7.17
TTTTATTTTTATTATACACACGCTTAATAAATGCAT [CACACA_site1751]	6.89
GGGGGGATGAGATATTGTACTTTTTAGGAAAGTGTA [XGTACX_site2835]	9.19
ATTAAATACATTAACACACACACAAATATATACATA [CACACA_site2881]	7.09
AATAATAATACTAATCGTACGCATATTTTTCAAACC [XGTACX_site8055]	7.08
CATGTTCATCAGAACGCACACATAATGGTTTACTTA [CACACA_site898]	6.91
AAGAAAAAAAAAATTACACACTGCGCACATACACAA [CACACA_site6721]	7.6
AGTAACTAATTAAATGCATGTCGATATATATTATAT [TGCATGCA_site1038]	7.17
GTGTATATGTATATATGTACATAAATTTTTTTTTTT [XGTACX_site7083]	7.02
GATACACCAAATAACTGTACGCACGTGTAATATTAA [XGTACX_site3441]	7.38
ACTTATATAAAACATTAACACACAAAGAAAAAAAAT [CACACA_site8529]	7.17
TATATATATATATATACACACATATATACCTATATA [CACACA_site6085]	9.25
AAAAAAAAGTTAAGCACACACATGAATAAATAATAC [CACACA_site840]	7.33
CCTAGAAAAGTATATACACACGCGCAAAATAAAATT [CACACA_site1413]	7.09

Sequence	gcPBM binding intensity (ln)
TGAAAAAAAAAATACACACACGAGTTGTTATACATA [CACACA_site7486]	6.66
ATTAAAAAAATTGGCACACATAAAAATATATAAAAA [CACACA_site2748]	7.01
GTTTTTAATGTTTTGACATGCAATATTAAAAATAAT [TGCATGCA_site174]	7.03
AACAGATATGAATAGAAAAAAAAAAATGGCCCATAT [TGCATGCA_negctrl_site443]	6.69
TATAATGATAATAATAGTACACATTAGAACGGGAGG [XGTACX_site2563]	7.35
TATAATAATAAAAACACACACGTTGATTGTATTAGC [CACACA_site5336]	6.76
CCTATTATTTCTAAAACACACAAAAATATAAAAGAA [CACACA_site2708]	7.39
ATAATATTATTTAAAAGTACTAACAAAAGAATATTA [XGTACX_site4989]	7.02
TCTTTTTTTTATTATATCATTGAAATGTTAAAACGA [XGTACX_negctrl_site473]	6.91
ATTAAAAAAAATATATATGTATAAAACAAGCAAAAT [XGTACX_negctrl_site474]	7.31
TACACAAACAAACACACACACACACCCCCACAAAAA [CACACA_site2428]	7.99
GACCACTTTAGGATTTGTACACATATTATATATGCA [XGTACX_site6579]	7.23
TAGCCATTTTTATATTGTACTTATATAATCACATTT [XGTACX_site4407]	7.29
ATAAAAAAAAATAACACACAGACATAAGAATAAATA [CACACA_site4162]	6.91
ATATAAGAAAAGCACACACACACAAAAAAAAAAAAA [CACACA_site2827]	7.01
AAAAAAATTAAAAATTAAAATTAAAAATAATATATA [GTGCAC_negctrl_site466]	6.56
AATGTATAAATCCATACACACATAAATTTTAATAAT [CACACA_site2363]	6.76
TAATTTCTTTAGGGGGTGCTTTTATAGTTTTTATTA	9.53
TTTATATTTATGATGGGTACACAAAATTTTACCCAT [XGTACX_site1504]	6.96
CTGTCTGCAGATATGGTGCATTTGTAAGATCTTACA [GTGCAC_site9870]	10.4
TTCATAAAATGTGTCTGTACGTAAATGTATTACACT [XGTACX_site3179]	7.02
AACATTATATATTGCAGTACTCCCATATGTTGATAA [XGTACX_site3119]	7.12

Sequence	gcPBM binding intensity (ln)
ATATATATATATATATGTACACATAAAAAGAAAGAA [XGTACX_site1603]	9.7
TTTAGTTGTGAGAATTGTACATATTTTCCTTTTACC [XGTACX_site7291]	6.98
TATATACCTATATACACACACATATATTATAGATAT [CACACA_site6266]	7.2
TATATATATGAACAATGTACGTATAATATTTTTATT [XGTACX_site7561]	7.08
GATCTATACTATAATACACACATTTGATGAATGTAA [CACACA_site6163]	7.06
GCAATTTTTTTTAAGAGTACTAATATATTATAGTGG [XGTACX_site7316]	7.11
TTTTTTTAATAGTGTGCACACAATATACAGAAAAAA [CACACA_site8399]	9.3
ATATATATATATATATGTACATATGTTTGTTTCCGC [XGTACX_site5167]	9.7
CATAATTTAAAAAAGGTGCAAAATGGATAATATATA [GTGCAC_site9657]	11
CATACATACATACATACATGCATACATACATACATA [TGCATGCA_site218]	7.95
TTTTTTTTCATTTTATGTACACATAATTTAATATAT [XGTACX_site5768]	7.54
AAAAAGTGACTCCTTACACACTTTACATAATTTAGG [CACACA_site8176]	6.78
ATATACATATATATATGTACTTATTTATTTATTTAT [XGTACX_site2532]	7.16
ATATATATATATAATTGTACATATAATATAATATTA [XGTACX_site5216]	9.25
ATATATATTATATATAGTACTTTTTTGCGCAAATAT [XGTACX_site6849]	7.4
AATATGTTATAAATATGTTATAAATAATAAATAAAT [GTGCAC_negctrl_site135]	6.95
AACACATGCTTGGTCACACACGTATGCATATTTAAA [CACACA_site5206]	7.13
ACAATGTCATTTGCTAGTACGCATATTGGTTGTAAA [XGTACX_site8924]	7.07
ATTTTTTTTTTTTTATGTACATATAGGTGCAAATCA [XGTACX_site6748]	11.4
TAAAAAAAAAAAAAAAGTACACACATACATATAAAT [XGTACX_site3752]	7.37
TATTTTTTTTTTTTTTTTTTTTTAAAACATATCAAT [CACACA_negctrl_site925]	6.69
TAATTATATATATACACACACATACAGACAAATAAA [CACACA_site3412]	7.28

Sequence	gcPBM binding intensity (ln)
GAAATTTGTTATTGCACACAAATTTTTCTTTTTTTA [CACACA_site2339]	6.97
ATATTTATATATATCATACACACTAATATGTATATT [CACACA_site3409]	6.9
TACCATATTTCTTCAAGTACGCATTATGTTAAAAAG [XGTACX_site345]	7.24
TACATATATTTTTATACATGCATAACTTAGGACTTT [TGCATGCA_site113]	7.07
TCCTTTTTGAAATGTTGTACTTTTTTTATCTTTCAT [XGTACX_site953]	7.12
ATTTTTATTCAGTTCACACACGCTTTAATATTATAT [CACACA_site3465]	7.1
AAAATATTTTTATAATGTACATATAGTTGTATTTGT [XGTACX_site8724]	7.43
ATATATATTTAACAATGTACTTATTCAGAGAATAAT [XGTACX_site574]	7.04
AAGTTGAAATAATGTGCACACATTTTTTTTTTTTTT [CACACA_site3368]	8.43
CCCTTAATATAAAGCACACATATATATAATATATAT [CACACA_site4439]	7.21
ATTAATAAAAAATTTTAAAAAATAAATAAAATAAAA [TGCATGCA_negctrl_site113]	6.74
ATAATAAATAAAATAACACACATATATAAATATATA [CACACA_site170]	6.98
ATTATGTGTCCACATGTAAGCTATCTTACTTATATA [CACACA_negctrl_site1227]	6.98
CATATTTGTGGACACACACACATATTTATATATATA [CACACA_site5887]	7.93
ATAGTTACACAATGGTGTACAAGTCAATATATTTCT [XGTACX_site4614]	6.95
TACAAAAAAATAAAAAAAATTAAATAAATAAATATA [CACACA_negctrl_site45]	6.76
TATCCTTATATTTGCACACACACACTAGAAAATGAA [CACACA_site4714]	7.69
AAAAAAAAAAAAAAAAAAAACGAAAAACATCAAAGA [TGCATGCA_negctrl_site78]	8.1
ACTAAAAAATATATATGTACATAATAATATATTATT [XGTACX_site1260]	7.36
ATTTATACTTATGTATGTACATATATACATATGTAT [XGTACX_site3979]	7.07
ATAATAAAATAACTAGTGCATATTCAAAGGATTCAG	8.26
TCCATATATGCCTTATGTACATATACCAAATTAACC [XGTACX_site6513]	7.28
